Assay results as given in a compilation of properties of binary mixtures (doi:10.1021/acs.jced.8b00965).
The densities may have been worked out from excess volumes.

Experiment: xn = mol fraction of the nth substance listed
Conditions: 100 kPa

C[N+](C)(C)CCC[N+]1(C)CCCCC1.N#C[N-]C#N.N#C[N-]C#N + CO
mass density [kg/m3]
Conditions | x1 = 0.0998 | x1 = 0.2001 | x1 = 0.2999 | x1 = 0.4002 | x1 = 0.5001 | x1 = 0.6001 | x1 = 0.7003 | x1 = 0.8002 | x1 = 0.8991 | x1 = 1
293.15 K | 958 | 1020 | 1050.5 | 1069.8 | 1083.3 | – | 1100.9 | 1106.6 | 1110.3 | 1113.2
303.15 K | 951 | – | 1044.7 | 1064.1 | 1077.6 | 1087.6 | 1095.3 | 1101.1 | 1105.1 | 1107.6
313.15 K | 944 | 1007.7 | 1038.5 | 1058.2 | 1071.9 | 1082.1 | 1089.8 | 1095.7 | 1100 | 1102.1
323.15 K | – | 1001.3 | 1032 | 1052.1 | – | 1076.4 | 1084.3 | 1090.4 | 1094.7 | 1096.7
333.15 K | 930.1 | 994.3 | 1025.8 | 1046.1 | 1060.3 | 1070.8 | 1078.8 | – | 1089.6 | 1091.4

C[N+](C)(C)CCC[n+]1ccccc1.N#C[N-]C#N.N#C[N-]C#N + CO
mass density [kg/m3]
Conditions | x1 = 0.0999 | x1 = 0.2001 | x1 = 0.3002 | x1 = 0.3999 | x1 = 0.5002 | x1 = 0.6001 | x1 = 0.7003 | x1 = 0.7998 | x1 = 0.8995 | x1 = 1
293.15 K | 968 | 1040.9 | 1080.4 | – | 1120.5 | 1131.8 | 1140.3 | 1147 | – | 1158
303.15 K | 960.6 | 1034.3 | 1074.1 | 1098.2 | – | 1125.8 | – | 1141.2 | 1147.2 | 1152.1
313.15 K | – | 1027.9 | 1067.8 | – | – | 1119.8 | 1128.5 | – | 1141.5 | –
323.15 K | 946.8 | 1021.4 | – | – | – | – | 1122.7 | 1129.7 | 1135.8 | 1140.7
333.15 K | – | – | 1055.6 | – | 1096.5 | – | 1117 | 1124.1 | 1130.2 | 1135.1

CO + C[N+](C)(C)CCC[N+]1(C)CCCCC1.N#C[N-]C#N.N#C[N-]C#N
x2 = 0
Conditions | mass density [kg/m3]
303.15 K | 781.9
313.15 K | 772.4
333.15 K | 752.9

CO + C[N+](C)(C)CCC[n+]1ccccc1.N#C[N-]C#N.N#C[N-]C#N
x2 = 0
Conditions | mass density [kg/m3]
293.15 K | 791.3
303.15 K | 781.9
313.15 K | 772.4
323.15 K | 762.7
333.15 K | 752.9
